Experimental data reported in article PMC9911399, “Two distinct binding modes provide the RNA-binding protein RbFox with extraordinary sequence specificity”.
Positions count from the first letter of the chain named. This is one part of the list.

T1: RBFOX1 RRM RbFoxmut (Fox-RRM*) (Homo sapiens, UniProt Q9NWB1 109-208, R118D;E147R;N151S;E152T)
T1 sequence: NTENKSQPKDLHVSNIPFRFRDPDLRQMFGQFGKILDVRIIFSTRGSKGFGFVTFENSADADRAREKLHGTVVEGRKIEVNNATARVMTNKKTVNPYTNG

B1: CGUCUGU (DNA:RNA)
RNA: GGGAGACCGGAAUUCAGAUUGUCCCGUCUGUUUAAAUCCCGUCGUAGCCACCA
DNA 1: CAATCTGAATTCCGGTCTCCC
DNA 2: TGGTGGCTACGACGGGATT
B2: AUAGCAA (DNA:RNA)
RNA: GGGAGACCGGAAUUCAGAUUGUCCAUAGCAAUUAAAUCCCGUCGUAGCCACCA
DNA 1: CAATCTGAATTCCGGTCTCCC
DNA 2: TGGTGGCTACGACGGGATT
B3: GCACCGG (DNA:RNA)
RNA: B2 RNA with A25G, U26C, G28C, A30G, A31G
DNA 1: CAATCTGAATTCCGGTCTCCC
DNA 2: TGGTGGCTACGACGGGATT
B4: UGCGGUA (DNA:RNA)
RNA: B2 RNA with A25U, U26G, A27C, C29G, A30U
DNA 1: CAATCTGAATTCCGGTCTCCC
DNA 2: TGGTGGCTACGACGGGATT
B5: CCCGUUU (DNA:RNA)
RNA: B1 RNA with G26C, U27C, C28G, G30U
DNA 1: CAATCTGAATTCCGGTCTCCC
DNA 2: TGGTGGCTACGACGGGATT
B6: ACUAAUA (DNA:RNA)
RNA: B2 RNA with U26C, A27U, G28A, C29A, A30U
DNA 1: CAATCTGAATTCCGGTCTCCC
DNA 2: TGGTGGCTACGACGGGATT
B7: GGCCGAG (DNA:RNA)
RNA: B1 RNA with C25G, U27C, U29G, G30A, U31G
DNA 1: CAATCTGAATTCCGGTCTCCC
DNA 2: TGGTGGCTACGACGGGATT
B8: CGGUUGC (DNA:RNA)
RNA: B1 RNA with U27G, C28U, U31C
DNA 1: CAATCTGAATTCCGGTCTCCC
DNA 2: TGGTGGCTACGACGGGATT
B9: CGUAUGC (DNA:RNA)
RNA: B1 RNA with C28A, U31C
DNA 1: CAATCTGAATTCCGGTCTCCC
DNA 2: TGGTGGCTACGACGGGATT
B10: AGAUCUC (DNA:RNA)
RNA: B2 RNA with U26G, G28U, A30U, A31C
DNA 1: CAATCTGAATTCCGGTCTCCC
DNA 2: TGGTGGCTACGACGGGATT
B11: GCGUGGG (DNA:RNA)
RNA: B1 RNA with C25G, G26C, U27G, C28U, U29G, U31G
DNA 1: CAATCTGAATTCCGGTCTCCC
DNA 2: TGGTGGCTACGACGGGATT
B12: GUUGGCU (DNA:RNA)
RNA: B2 RNA with A25G, A27U, C29G, A30C, A31U
DNA 1: CAATCTGAATTCCGGTCTCCC
DNA 2: TGGTGGCTACGACGGGATT
B13: AAGUUUG (DNA:RNA)
RNA: B2 RNA with U26A, A27G, G28U, C29U, A30U, A31G
DNA 1: CAATCTGAATTCCGGTCTCCC
DNA 2: TGGTGGCTACGACGGGATT
B14: GACUGAA (DNA:RNA)
RNA: B2 RNA with A25G, U26A, A27C, G28U, C29G
DNA 1: CAATCTGAATTCCGGTCTCCC
DNA 2: TGGTGGCTACGACGGGATT
B15: UGACAAC (DNA:RNA)
RNA: B2 RNA with A25U, U26G, G28C, C29A, A31C
DNA 1: CAATCTGAATTCCGGTCTCCC
DNA 2: TGGTGGCTACGACGGGATT
B16: UCUUGGA (DNA:RNA)
RNA: B1 RNA with C25U, G26C, C28U, U29G, U31A
DNA 1: CAATCTGAATTCCGGTCTCCC
DNA 2: TGGTGGCTACGACGGGATT
B17: AAGAAUU (DNA:RNA)
RNA: B2 RNA with U26A, A27G, G28A, C29A, A30U, A31U
DNA 1: CAATCTGAATTCCGGTCTCCC
DNA 2: TGGTGGCTACGACGGGATT
B18: GUACACG (DNA:RNA)
RNA: B2 RNA with A25G, G28C, C29A, A30C, A31G
DNA 1: CAATCTGAATTCCGGTCTCCC
DNA 2: TGGTGGCTACGACGGGATT
B19: AUAGAGC (DNA:RNA)
RNA: B2 RNA with C29A, A30G, A31C
DNA 1: CAATCTGAATTCCGGTCTCCC
DNA 2: TGGTGGCTACGACGGGATT
B20: AAUUCUU (DNA:RNA)
RNA: B2 RNA with U26A, A27U, G28U, A30U, A31U
DNA 1: CAATCTGAATTCCGGTCTCCC
DNA 2: TGGTGGCTACGACGGGATT

What follows are binders tested against T1, RBFOX1 RRM RbFoxmut (Fox-RRM*) (assay: EMSA; HiTS-Eq, 1 nM pool, 10 min; buffer printed only for the single-RNA assays: 10 mM Tris pH 7.5, 150 mM NaCl, 3.4 mM EDTA, 0.001% NP-40, 30 C). Conditions: tags: His6 N-terminal (pET28a); label: 5' 32P.
In short: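 Purified RbFox RRM, wild type or mutant, was incubated for 10 min in 50 µL with 1 nM of a 5′-radiolabelled RNA pool carrying 7 randomized nucleotides, whose flanks were annealed to DNA oligonucleotides, over a series of increasing protein concentrations. Unbound RNA was resolved on 8% native PAGE, cut out, reverse-transcribed, barcoded by PCR and sequenced on an Illumina HiSeq 2500. Relative association constants were derived from changes in read counts for each RNA species versus the control reaction and normalised to the cognate motif.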

**Q.** For B1, which binding signal is on record?
**A.** 0.159 KA relative to UGCAUGU

**Q.** B2 was tested. Which binding signal did it give?
**A.** 0.0747 KA relative to UGCAUGU

**Q.** How did the binding signal turn out when B3 was run?
**A.** 0.102 KA relative to UGCAUGU

**Q.** B4 was tested. Which binding signal did it give?
**A.** 0.187 KA relative to UGCAUGU

**Q.** B5 was tested. Which binding signal did it give?
**A.** 0.0655 KA relative to UGCAUGU

**Q.** With B6 as the binder, how does the binding signal read?
**A.** 0.139 KA relative to UGCAUGU

**Q.** For B7, which binding signal is on record?
**A.** 0.106 KA relative to UGCAUGU

**Q.** With B8 as the binder, how does the binding signal read?
**A.** 0.118 KA relative to UGCAUGU

**Q.** How did the binding signal turn out when B9 was run?
**A.** 0.325 KA relative to UGCAUGU

**Q.** With B10 as the binder, how does the binding signal read?
**A.** 0.0652 KA relative to UGCAUGU

**Q.** With B11 as the binder, how does the binding signal read?
**A.** 0.0842 KA relative to UGCAUGU

**Q.** With B12 as the binder, how does the binding signal read?
**A.** 0.121 KA relative to UGCAUGU

**Q.** Which binding signal does the source give for B13 here?
**A.** 0.26 KA relative to UGCAUGU

**Q.** How did the binding signal turn out when B14 was run?
**A.** 0.123 KA relative to UGCAUGU

**Q.** For B15, which binding signal is on record?
**A.** 0.0518 KA relative to UGCAUGU

**Q.** For B16, which binding signal is on record?
**A.** 0.0661 KA relative to UGCAUGU

**Q.** Which binding signal does the source give for B17 here?
**A.** 0.108 KA relative to UGCAUGU

**Q.** B18 was tested. Which binding signal did it give?
**A.** 0.118 KA relative to UGCAUGU

**Q.** Which binding signal does the source give for B19 here?
**A.** 0.121 KA relative to UGCAUGU

**Q.** How did the binding signal turn out when B20 was run?
**A.** 0.0931 KA relative to UGCAUGU
